Experimental data: ChEMBL document CHEMBL1201862, “PubChem BioAssay data set” (2004)
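Step 1: Grow cells in 96-well plates. Step 2: Expose to compound for 48 hours at 5 concentrations. Step 3: Interpolate endpoints linearly; if unreached, use highest concentration. The concentration for 50% growth inhibition is given as GI50.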 Calls of active or inactive are those of the source. Cut-off read from the data, not from the text of the source: active = GI50 up to about 1.1 µM and inactive = higher.

What follows are compounds tested on NCI-H322M (assay: NCI tumour cell line growth inhibition, 48 h).

Compound	GI50
CNC(=O)OCc1nccc2c(C)c3[nH]c4ccc(OC)cc4c3cc12	inactive: 2.97 µM
O=C(NNC(=O)c1ccccc1O)c1cccc(Br)c1	inactive: 47.1 µM
NS(=O)(=O)c1cc(Br)c(/N=N\c2ccc(O)c3ncccc23)c(Br)c1	inactive: 39.7 µM
Cc1cc([N+](=O)[O-])c(C)c(Br)c1C	inactive: > 100 µM
CCOC(=O)C12CN(C34CC5CC(CC(C5)C3)C4)CC(C(=O)OCC)(C1=O)C(c1ccccc1)OC2c1ccccc1 (stereo unspecified)	inactive: > 100 µM
COc1ccccc1NC(=O)O/N=C(/Cl)C(C)C	inactive: 13.3 µM
N[C@H]1C2C3CC4C5CC(C42)C1(c1ccccc1)C53 (stereo partly specified)	inactive: > 100 µM
O=C1N[C@@H]2CCC[C@@H]2[C@@H]1c1ccc(Cl)cc1	inactive: > 100 µM
COc1cc(C2SCC(=O)N2c2ccc(Oc3ccc(Cl)cc3)c(Cl)c2)cc(OC)c1OC (stereo unspecified)	inactive: 17.5 µM
COC1(OC)CC2C(=O)N(Cc3ccccc3)C1CC2S(=O)(=O)c1ccccc1 (stereo unspecified)	inactive: > 100 µM
FC(F)(F)c1nc2cc(SSc3cc4nc(C(F)(F)F)[nH]c4cc3Cl)c(Cl)cc2[nH]1	inactive: > 100 µM
Cc1cc(C)nc(NS(=O)(=O)c2ccc(NC(=O)c3cccc4c(Nc5ccc(S(=O)(=O)Nc6nc(C)cc(C)n6)cc5)c5ccc(Cl)cc5nc34)cc2)n1	inactive: 50.8 µM
CO/C(N)=C(C#N)/N=C/c1cccs1	inactive: 49.9 µM
CC1OC(OC2C(O[C@@H]3C[C@@H]4CC[C@@H]5[C@H](CC[C@]6(C)[C@@H]7[C@H](C[C@@H]56)O[C@]5(CC[C@@H](C)CO5)[C@H]7C)[C@@]4(C)C[C@H]3O)OC(CO)C(OC3OC(CO)C(O)C(O)C3O)C2O)C(O)C(O)C1O (stereo partly specified)	inactive: 2.37 µM
C[N+](C)(C)CC(=O)N/N=C\c1c(O)ccc2ccccc12	inactive: 35.1 µM
O=c1oc2cc(/N=C/c3ccc4c(c3)OCO4)ccc2c2ccccc12	inactive: 31.2 µM
C[C@@H]1[C@@H](C)C(c2ccccc2)O[Si]1(C(C)(C)C)C(C)(C)C (stereo partly specified)	inactive: 16.4 µM
C=CCCCCCCC#CCCCCCCCCCC[C@@H]1C(=O)O[C@H](C)[C@@H]1O.CCCCCCCCC#CCCCCCCCCCC[C@@H]1C(=O)O[C@H](C)[C@@H]1O	inactive: 40.7 µM
COc1cc([C@@H]2c3cc4c(cc3[C@@H](NC(=O)c3cccc(C#N)c3)C3COC(=O)[C@@H]32)OCO4)cc(OC)c1O (stereo partly specified)	inactive: 8.02 µM
NC1=NC(=O)/C(=C/c2ccccc2[N+](=O)[O-])C(N)=N1	inactive: > 100 µM
COC(=O)C1=NN2c3ccccc3C(=O)OCCC2C1 (stereo unspecified)	inactive: > 100 µM

Compound	GI50
COc1ccccc1NC(=O)CC(=O)n1nc(C)c(/N=N/c2ccccc2Cl)c1C	inactive: > 100 µM
Cc1nc(N2N=C(c3ccc(Cl)cc3)CCC2=O)sc1[N+](=O)[O-]	inactive: > 100 µM
CC1=NN(c2cccc(Cl)c2)C2(C1)C(Cl)C(=O)N2c1nc2ccccc2s1 (stereo unspecified)	inactive: 42.6 µM
N=C(N)C1CN(CCc2c[nH]cn2)C(=O)NC1=O (stereo unspecified)	inactive: > 100 µM
O=C(/C=C1\Nc2ccc([N+](=O)[O-])cc2N=C1NC12CC3CC(CC(C3)C1)C2)c1ccccc1	inactive: > 10 µM
O=[N+]([O-])c1ccc(C2CC(c3ccc(NCc4nc5ccccc5[nH]4)cc3)=NO2)cc1 (stereo unspecified)	inactive: 76.6 µM
CN(C)CCCNC(=O)CNC(=O)c1cc(NC(=O)c2cc(NC(=O)c3cc(NC(=O)CCNC(=O)c4cc(NC(=O)c5cc(NC(=O)c6nccn6C)cn5C)cn4C)cn3C)cn2C)cn1C	inactive: > 100 µM
CC1C(O)Oc2cc3c(cc2C1c1ccccc1O)OCO3 (stereo unspecified)	inactive: 29 µM
CC[P+](C)(Cc1ccccc1)c1ccccc1 (stereo unspecified)	inactive: > 100 µM
COC(=O)c1c(C)cccc1CC1Cc2c(C)cccc2C1=O (stereo unspecified)	inactive: 33 µM
COc1ccc2oc(=O)c(-c3csc(C)n3)cc2c1	inactive: > 100 µM
CCOC(=O)/C=C/C1=C(Br)[C@@]2(C)CC[C@@H]3c4ccc(O)cc4CC[C@H]3[C@@H]2C1	inactive: 15.5 µM
CCOc1cc(/C=C2\N=C(c3ccccc3)N(c3nc4ccccc4s3)C2=O)ccc1O	inactive: 70.6 µM
Oc1ccc(-c2c3c(nc4c2CCc2ccc(Br)cc2-4)-c2cc(Br)ccc2CC3)cc1	inactive: 17.5 µM
COc1cccc(C(=O)O[C@H]2[C@@H]3[C@]4(OC(C)=O)CO[C@@H]4C[C@H](O)[C@@]3(C)C(=O)[C@H](OC(C)=O)C3=C(C)[C@@H](OC(=O)[C@H](O)[C@@H](NC(=O)OC(C)(C)C)c4ccco4)C[C@]2(O)C3(C)C)c1	active: < 0.00375 µM
CC(C)CNC(=O)Cn1c(-c2ccccc2)cc2ccccc21	inactive: > 100 µM
CC(=O)c1c2c(c3ccccc3c1O)O[C@@H]1OCC[C@H]21	inactive: > 100 µM
CCOP(=O)(/C=C\n1ccc(=O)[nH]c1=O)OCC	inactive: > 100 µM
CCOC(=O)c1cc2c([nH]1)c(OC(C)=O)cc1c2ccn1Cc1ccccc1	inactive: > 100 µM
COc1cc(I)c2c3c1OC1C34CCN(C)C(C2)C4=CC(I)C1(OC)OC (stereo unspecified)	inactive: 39.9 µM
